Reference: the supplement of paper PMC3334620
Over roughly 33,000 sequences, “E-score (-0.5 to 0.5)” has its median near -0.013; the highest 2% begin near 0.3. The list shows a part of the results.

biological target: T1, Msn1 (UniProt P22148); experiment: PBM E-score (8-mer binding enrichment) (E-score (-0.5 to 0.5)); higher = stronger / more preferred TF binding; most listed sequences are background and not binding sites; conditions: protein concentration: 200 nM; construct: GST-full length
T1 sequence: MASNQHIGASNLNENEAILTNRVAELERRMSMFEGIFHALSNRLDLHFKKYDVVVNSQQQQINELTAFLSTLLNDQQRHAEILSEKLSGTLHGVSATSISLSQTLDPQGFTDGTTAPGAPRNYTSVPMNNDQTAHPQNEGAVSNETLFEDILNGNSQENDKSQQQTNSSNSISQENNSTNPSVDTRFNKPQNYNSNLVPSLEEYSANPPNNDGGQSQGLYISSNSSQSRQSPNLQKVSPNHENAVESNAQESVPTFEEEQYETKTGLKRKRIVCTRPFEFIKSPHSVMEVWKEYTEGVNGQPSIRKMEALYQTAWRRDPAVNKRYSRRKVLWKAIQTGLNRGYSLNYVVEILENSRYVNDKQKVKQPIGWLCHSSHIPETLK
Summary of the method: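 Using PURExpress in vitro transcription/translation, GST-tagged yeast transcription factors were made in full-length or DNA-binding-domain form. These were applied at about 100-200 nM to double-stranded universal all-10-mer Agilent arrays, and bound protein was detected with fluorescent anti-GST. Scans were normalised with masliner before the Universal PBM Analysis Suite assigned E-scores to ungapped eight-base words pooled with their reverse complements.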

In order of falling “PBM E-score” value:
1. GTATGTCA  0.35
2. CGTGAAAG  0.241
3. TAACAAAA  0.228
4. GTTAGCGA  0.228
5. ACCAAAAA  0.21
6. CACTGACA  0.202
7. TCACGAAA  0.197
8. TATGTTCA  0.197
9. AAAGTCTG  0.177
10. ACTTTCTG  0.163
11. GGTTATAA  0.163
12. ATTATCCC  0.161
13. ATTTAGGC  0.144
14. ACATTGTA  0.143
15. GCGAATGA  0.13
16. ATGTACTC  0.124
17. CCGGTATA  0.12
18. GTCTGCGA  0.118
19. ACTACCGC  0.112
20. AGAGTTGC  0.108
21. CTGAGCAA  0.108
22. AACCAAGG  0.107
23. CGTCATTC  0.106
24. AGCCGAAG  0.105
25. ACGGATCA  0.102
26. ATTGCCTC  0.0949
27. GGAAACAC  0.0884
28. CGATTGTA  0.088
29. CGACGAAC  0.0816
30. AAGCCAAT  0.0816
31. GTCCGCCA  0.0788
32. ATCGTGGA  0.0781
33. GCCGAGGC  0.0775
34. GAAGCGAC  0.0716
35. AACTGGTC  0.0678
36. ACACGGCA  0.0639
37. TCCAACCA  0.0602
38. CGGGCGTC  0.0597
39. ACCAGCTA  0.052
40. ACTGGTAA  0.0484
41. GACGTCTC  0.0471
42. GAGTGAAA  0.0469
43. ATCGTGCC  0.0402
44. ATCGCTTC  0.0398
45. CATACACC  0.0379
46. GAAAACTA  0.0346
47. CGCTTATA  0.0306
48. ATTTGGGC  0.0292
49. GCAAACCA  0.0271
50. AAACGTGA  0.021
51. CTGTGTCA  0.02
52. AGATGATC  0.02
53. ATTACCCG  0.0195
54. AAATTCTA  0.0189
55. ACACCTGA  0.0184
56. ACCGCGGC  0.014
57. ATTGCCAC  0.0127
58. GCAGTAGA  0.0106
59. TCGTTGCA  0.0106
60. AACGTTGA  0.0105
61. CCTTGCAC  0.00743
62. CATCAATG  0.00427
63. ACGTTTCT  0.00409
64. GGTTAAAC  0.00336
65. AGCGATTA  -0.00328
66. CAACCTGC  -0.00454
67. AGCGAGAT  -0.00455
68. GTTTTTGA  -0.00866
69. CTCCGCTC  -0.0101
70. GAACGTTC  -0.0109
71. AATGGGGT  -0.0154
72. TCTAAACA  -0.0184
73. GAGCGTAC  -0.0192
74. CATGCCTC  -0.0203
75. CCCACCCG  -0.0243
76. AACACACG  -0.0269
77. CAGGCAGA  -0.0321
78. CATTTCAG  -0.0324
79. CTCGATTA  -0.0362
80. CTCCGGTA  -0.0362
81. ATGCGCAA  -0.0413
82. CAGGACCA  -0.0434
83. GCGCACCA  -0.0442
84. AGGTGGTA  -0.0458
85. ATGCTTCC  -0.0466
86. CACTCCAC  -0.0525
87. CGCCGGCC  -0.0553
88. GCCGCAGA  -0.0562
89. CAGATCTC  -0.0567
90. ATCTAGGG  -0.0588
91. AAGCAAAG  -0.064
92. GCTTCCAA  -0.0663
93. AAGGAATC  -0.0672
94. GCCGCGTA  -0.0693
95. ACAGGCAG  -0.0702
96. CTGTTCAC  -0.0749
97. ACGCTTCG  -0.0757
98. ATCCTAGG  -0.0767
99. ACGGCATC  -0.0778
100. AGCAGTTG  -0.0796
101. CACCTCTG  -0.0825
102. AGCGGCGA  -0.0831
103. CCCTTCGG  -0.0863
104. CGGAGAGC  -0.0906
105. AGTAGGCC  -0.0938
106. AATGCTTG  -0.094
107. CATGCTCA  -0.0943
108. CGCGATCA  -0.0968
109. CAACCACG  -0.0971
110. ACCTTATC  -0.0985
111. CCTATTAC  -0.101
112. GGCCACAC  -0.102
113. TTGCTAAA  -0.102
114. ACTGCCCA  -0.104
115. AGCTAAAT  -0.105
116. CGAGGATA  -0.111
117. GTTGTGCA  -0.111
118. GCTCGCCA  -0.112
119. AAAGGCGT  -0.112
120. CTGAAAAG  -0.112
121. CTAAGTGC  -0.114
122. GCTAAACA  -0.116
123. CGTCTTTC  -0.122
124. AAGCCTAT  -0.122
125. AGACTCCT  -0.125
126. AATCCAAC  -0.126
127. CTATGCCA  -0.13
128. ATCCATGA  -0.133
129. AACCAAAC  -0.136
130. AACTTCGT  -0.136
131. ACGTGGCT  -0.138
132. TGCAAGCA  -0.138
133. ATCTAGGC  -0.14
134. TGCCTCAA  -0.14
135. TCAGCTCA  -0.149
136. GAGCAGCC  -0.151
137. GCCTCAAA  -0.156
138. CGTAGTTC  -0.157
139. CCTACAGA  -0.16
140. ATATGGCC  -0.169
141. AGGCTGCC  -0.169
142. AGATGCCC  -0.173
143. CGAGCACG  -0.175
144. AGCCTCAA  -0.187
145. GCAGATGC  -0.195
146. GTAGCTAA  -0.198
147. CTTAAGGC  -0.2
148. CTGGAGCC  -0.205
149. CACAGGCG  -0.208
150. AAGGCTCG  -0.214
151. TGCACCAA  -0.214
152. ACCCAATG  -0.214
153. AGTCGTCG  -0.218
154. ACCCCGGT  -0.218
155. GCTCCCAA  -0.22
156. AGAGGGTG  -0.223
157. CCGTGGCC  -0.226
158. AGCCTTCG  -0.227
159. CCATAGGG  -0.23
160. CCGGTGGC  -0.24
161. CAAGGGTA  -0.241
162. AGACTCCC  -0.253
163. CTGCAGGC  -0.26
164. GCCTTCTA  -0.262
165. AGCACACC  -0.266
166. GCAAGGCA  -0.273
167. AGGCTCCC  -0.276
168. AAGACGGT  -0.288
169. ACGACCCT  -0.295
170. CTCTCCAC  -0.332
171. CTAGCGGC  -0.338
172. GCTTTGCC  -0.351
